# Test results as given in the supplement of paper PMC8728848.
# Some of the results follow.
# B1: AT1G15820(NC) (Arabidopsis thaliana) (protein)
# chain: MAMAVSGAVLSGLGSSFLTGGKRGATALASGVGDAIAPFSFGSLLGTQLLLMGWVESKRWVDFFNPDSQSVEWATPWSKTAENFANYTGDQGYPGGRFFDPLGLAGKNRDGVYEPDFEKLERLKLAEIKHSRLAMVAMLIFYFEAGQGKTPLGALGL
# Columns and labels:
# Assay in all cases: glycan array binding signal (z-score within array); higher = stronger binding
# Conditions in all cases: glycan notation: IUPAC condensed, linker removed
# [1] = molecular target: Man(a1-2)Man(a1-3)[Man(a1-2)Man(a1-6)]Man(a1-6)[Man(a1-2)Man(a1-2)Man(a1-3)]Man
# Procedure, shortened: (§1)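 From the Consortium for Functional Glycomics database, 3228 arrays were curated, keeping only those whose protein sequence was available. Binding is given as a within-array Z-score averaged across arrays sharing a protein sequence and across linkers. Negative Z-scores can be read as non-binding.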
# [2] = molecular target: Man(a1-2)Man(a1-3)[Man(a1-2)Man(a1-6)]Man(a1-6)[Man(a1-2)Man(a1-2)Man(a1-3)]Man(b1-4)GlcNAc(b1-4)GlcNAc
# Procedure, shortened: as §1
# [3] = molecular target: Man(a1-2)Man(a1-3)[Man(a1-6)]Man(a1-6)[Man(a1-2)Man(a1-3)]Man(b1-4)GlcNAc(b1-4)GlcNAc
# Procedure, shortened: as §1
# [4] = molecular target: Man(a1-2)Man(a1-6)[Man(a1-3)]Man(a1-6)[Man(a1-2)Man(a1-2)Man(a1-3)]Man
# Procedure, shortened: as §1
# [5] = molecular target: Man(a1-2)Man(a1-6)[Man(a1-3)]Man(a1-6)[Man(a1-2)Man(a1-2)Man(a1-3)]Man(b1-4)GlcNAc(b1-4)GlcNAc
# Procedure, shortened: as §1
# Man(a1-3)[Man(a1-6)]Man = molecular target: Man(a1-3)[Man(a1-6)]Man
# Procedure, shortened: as §1
# [6] = molecular target: Man(a1-3)[Man(a1-6)]Man(a1-6)[Man(a1-2)Man(a1-3)]Man(b1-4)GlcNAc(b1-4)GlcNAc
# Procedure, shortened: as §1
# [7] = molecular target: Man(a1-3)[Man(a1-6)]Man(a1-6)[Man(a1-3)]Man
# Procedure, shortened: as §1
# [8] = molecular target: Man(a1-3)[Man(a1-6)]Man(a1-6)[Man(a1-3)]Man(b1-4)GlcNAc(b1-4)GlcNAc
# Procedure, shortened: as §1
# [9] = molecular target: Man(a1-3)[Man(a1-6)]Man(b1-4)GlcNAc(b1-4)GlcNAc
# Procedure, shortened: as §1
# [10] = molecular target: Man(a1-3)[Man(a1-6)]Man(b1-4)GlcNAc(b1-4)[Fuc(a1-6)]GlcNAc
# Procedure, shortened: as §1
# Man(a1-6)Man = molecular target: Man(a1-6)Man
# Procedure, shortened: as §1
# Man(b1-4)GlcNAc = molecular target: Man(b1-4)GlcNAc
# Procedure, shortened: as §1
# MurNAc(b1-4)GlcNAc = molecular target: MurNAc(b1-4)GlcNAc
# Procedure, shortened: as §1
# Neu5Ac(a2-3)Gal = molecular target: Neu5Ac(a2-3)Gal
# Procedure, shortened: as §1
# [11] = molecular target: Neu5Ac(a2-3)Gal(b1-3)GalNAc
# Procedure, shortened: as §1
# [12] = molecular target: Neu5Ac(a2-3)Gal(b1-3)GalNAc(b1-3)Gal(a1-4)Gal(b1-4)Glc
# Procedure, shortened: as §1
# [13] = molecular target: Neu5Ac(a2-3)Gal(b1-3)GalNAc(b1-4)[Neu5Ac(a2-3)]Gal(b1-4)Glc
# Procedure, shortened: as §1
# [14] = molecular target: Neu5Ac(a2-3)Gal(b1-3)GalNAc(b1-4)[Neu5Ac(a2-8)Neu5Ac(a2-3)]Gal(b1-4)Glc
# Procedure, shortened: as §1
# [15] = molecular target: Neu5Ac(a2-3)Gal(b1-3)GalNAc6S
# Procedure, shortened: as §1
# [16] = molecular target: Neu5Ac(a2-3)Gal(b1-3)GlcNAc
# Procedure, shortened: as §1
# [17] = molecular target: Neu5Ac(a2-3)Gal(b1-3)GlcNAc(b1-2)Man
# Procedure, shortened: as §1
# [18] = molecular target: Neu5Ac(a2-3)Gal(b1-3)GlcNAc(b1-2)Man(a1-3)[GlcNAc(b1-4)][Neu5Ac(a2-3)Gal(b1-3)GlcNAc(b1-2)Man(a1-6)]Man(b1-4)GlcNAc(b1-4)GlcNAc
# Procedure, shortened: as §1
# [19] = molecular target: Neu5Ac(a2-3)Gal(b1-3)GlcNAc(b1-2)Man(a1-3)[Neu5Ac(a2-3)Gal(b1-3)GlcNAc(b1-2)Man(a1-6)]Man(b1-4)GlcNAc(b1-4)GlcNAc
# Procedure, shortened: as §1
# [20] = molecular target: Neu5Ac(a2-3)Gal(b1-3)GlcNAc(b1-3)Gal(b1-3)GlcNAc
# Procedure, shortened: as §1
# [21] = molecular target: Neu5Ac(a2-3)Gal(b1-3)GlcNAc(b1-3)Gal(b1-4)GlcNAc
# Procedure, shortened: as §1
# [22] = molecular target: Neu5Ac(a2-3)Gal(b1-3)GlcNAc(b1-3)GalNAc
# Procedure, shortened: as §1
# [23] = molecular target: Neu5Ac(a2-3)Gal(b1-3)GlcNAc(b1-4)Gal(b1-4)Glc
# Procedure, shortened: as §1
# [24] = molecular target: Neu5Ac(a2-3)Gal(b1-3)GlcNAc(b1-6)GalNAc
# Procedure, shortened: as §1
# [25] = molecular target: Neu5Ac(a2-3)Gal(b1-3)GlcNAc6S
# Procedure, shortened: as §1
# [26] = molecular target: Neu5Ac(a2-3)Gal(b1-3)[Fuc(a1-4)]GlcNAc
# Procedure, shortened: as §1
# [27] = molecular target: Neu5Ac(a2-3)Gal(b1-3)[Fuc(a1-4)]GlcNAc(b1-3)Gal(b1-3)[Fuc(a1-4)]GlcNAc
# Procedure, shortened: as §1
# [28] = molecular target: Neu5Ac(a2-3)Gal(b1-3)[Fuc(a1-4)]GlcNAc(b1-3)Gal(b1-4)[Fuc(a1-3)]GlcNAc
# Procedure, shortened: as §1
# [29] = molecular target: Neu5Ac(a2-3)Gal(b1-3)[GlcNAc(b1-6)]GalNAc
# Procedure, shortened: as §1
# [30] = molecular target: Neu5Ac(a2-3)Gal(b1-3)[Neu5Ac(a2-6)]GalNAc
# Procedure, shortened: as §1
# [31] = molecular target: Neu5Ac(a2-3)Gal(b1-3)[Neu5Ac(a2-6)]GlcNAc(b1-3)[Fuc(a1-3)[Gal(b1-4)]GlcNAc(b1-6)]Gal(b1-4)Glc
# Procedure, shortened: as §1
# [32] = molecular target: Neu5Ac(a2-3)Gal(b1-3)]Neu5Ac(a2-3)Gal(b1-4)]GlcNAc
# Procedure, shortened: as §1
# Neu5Ac(a2-3)Gal(b1-4)Glc = molecular target: Neu5Ac(a2-3)Gal(b1-4)Glc
# Procedure, shortened: as §1
binder,measurement,setting,value
B1,glycan array binding signal (z-score),[1],-0.369
same,glycan array binding signal (z-score),[2],-0.585
same,glycan array binding signal (z-score),[3],-0.507
same,glycan array binding signal (z-score),[4],-0.141
same,glycan array binding signal (z-score),[5],0.516
same,glycan array binding signal (z-score),Man(a1-3)[Man(a1-6)]Man,0.314
same,glycan array binding signal (z-score),[6],-0.053
same,glycan array binding signal (z-score),[7],-0.196
same,glycan array binding signal (z-score),[8],-0.446
same,glycan array binding signal (z-score),[9],-0.45
same,glycan array binding signal (z-score),[10],-0.082
same,glycan array binding signal (z-score),Man(a1-6)Man,-0.511
same,glycan array binding signal (z-score),Man(b1-4)GlcNAc,0.172
same,glycan array binding signal (z-score),MurNAc(b1-4)GlcNAc,-0.108
same,glycan array binding signal (z-score),Neu5Ac(a2-3)Gal,-0.457
same,glycan array binding signal (z-score),[11],-0.604
same,glycan array binding signal (z-score),[12],-0.441
same,glycan array binding signal (z-score),[13],-0.581
same,glycan array binding signal (z-score),[14],-0.683
same,glycan array binding signal (z-score),[15],-0.597
same,glycan array binding signal (z-score),[16],-0.178
same,glycan array binding signal (z-score),[17],1.29
same,glycan array binding signal (z-score),[18],-0.282
same,glycan array binding signal (z-score),[19],0.358
same,glycan array binding signal (z-score),[20],-0.521
same,glycan array binding signal (z-score),[21],-0.47
same,glycan array binding signal (z-score),[22],-0.434
same,glycan array binding signal (z-score),[23],-0.353
same,glycan array binding signal (z-score),[24],-0.225
same,glycan array binding signal (z-score),[25],0.445
same,glycan array binding signal (z-score),[26],0.003
same,glycan array binding signal (z-score),[27],-0.555
same,glycan array binding signal (z-score),[28],0.108
same,glycan array binding signal (z-score),[29],0.148
same,glycan array binding signal (z-score),[30],-0.248
same,glycan array binding signal (z-score),[31],-0.357
same,glycan array binding signal (z-score),[32],0.339
same,glycan array binding signal (z-score),Neu5Ac(a2-3)Gal(b1-4)Glc,0.04
